From paper PMC4336329 (PLoS ONE, 2015)
About 14,000 (4.5%) of roughly 310,000 compounds showed an effect of 50% or more. The effect is printed as a negative number. The list shows a part of the results.

Target: human ether-à-go-go-related gene (hERG) potassium channel (human, UniProt Q12809)
Experiment: primary screen, population patch clamp on CHO cells stably expressing hERG
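Further: peak tail current of the secondary pulse compared with the same well before compound.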

Chain of human ether-à-go-go-related gene (hERG) potassium channel (Q12809 whole entry, looked up): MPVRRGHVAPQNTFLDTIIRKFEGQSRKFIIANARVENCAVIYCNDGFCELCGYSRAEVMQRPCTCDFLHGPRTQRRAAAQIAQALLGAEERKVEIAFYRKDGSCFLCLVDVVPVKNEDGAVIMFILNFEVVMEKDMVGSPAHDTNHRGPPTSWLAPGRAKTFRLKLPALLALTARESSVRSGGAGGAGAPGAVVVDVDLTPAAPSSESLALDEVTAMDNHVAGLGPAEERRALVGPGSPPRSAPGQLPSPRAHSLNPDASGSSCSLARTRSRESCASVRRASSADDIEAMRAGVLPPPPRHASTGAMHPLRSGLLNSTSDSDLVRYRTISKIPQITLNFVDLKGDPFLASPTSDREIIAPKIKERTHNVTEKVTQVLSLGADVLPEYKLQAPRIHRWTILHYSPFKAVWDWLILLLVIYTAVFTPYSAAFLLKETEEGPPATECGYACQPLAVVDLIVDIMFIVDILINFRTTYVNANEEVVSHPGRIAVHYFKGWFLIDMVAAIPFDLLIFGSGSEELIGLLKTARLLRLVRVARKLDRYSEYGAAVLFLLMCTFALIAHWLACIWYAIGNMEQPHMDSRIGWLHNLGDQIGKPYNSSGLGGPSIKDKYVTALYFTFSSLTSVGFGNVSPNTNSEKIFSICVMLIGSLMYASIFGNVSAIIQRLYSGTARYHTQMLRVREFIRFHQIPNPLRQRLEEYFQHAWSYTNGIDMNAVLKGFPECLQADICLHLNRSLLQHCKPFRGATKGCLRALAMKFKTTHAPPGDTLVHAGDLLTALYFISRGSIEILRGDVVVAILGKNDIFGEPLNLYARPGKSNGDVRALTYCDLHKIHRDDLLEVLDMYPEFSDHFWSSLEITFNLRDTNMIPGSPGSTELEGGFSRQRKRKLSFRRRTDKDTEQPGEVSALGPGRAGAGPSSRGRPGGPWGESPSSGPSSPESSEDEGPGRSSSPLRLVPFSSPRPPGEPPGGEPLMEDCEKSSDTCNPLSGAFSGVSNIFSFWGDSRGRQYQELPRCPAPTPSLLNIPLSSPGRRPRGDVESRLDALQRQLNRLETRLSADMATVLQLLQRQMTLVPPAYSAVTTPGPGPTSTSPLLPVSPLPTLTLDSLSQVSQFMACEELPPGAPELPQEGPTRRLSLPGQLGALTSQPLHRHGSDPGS

SMILES	hERG current change (%, negative = inhibition) at 10uM [%]
COc1ccccc1CNc1n[nH]c(NCc2ccccc2OC)n1	0.0961
COc1cccc(-c2cc(C(=O)N3CCN(S(=O)(=O)c4ccccc4)CC3)[nH]n2)c1	-19.1
O=C(Nc1nnc(-c2ccccc2Cl)o1)c1ccc(S(=O)(=O)N2CCCCCC2)cc1	4.58
CCOc1cc(/C=C\[N+](=O)[O-])ccc1OCC(=O)N1CCOCC1	-50.5
CCN1CCN(c2cc(C)c3cc(NC(=O)c4ccncc4)ccc3n2)CC1	-21.4
COc1ccc(-c2cc(C(F)(F)F)nc(SCCC(=O)NCc3ccccc3)n2)cc1	-14.5
Cc1ccc(CNC(=O)COC(=O)c2cnccn2)cc1	-5.05
COc1ccccc1NC(=O)C1=C(C)Nc2nc3ccccc3n2C1c1cccs1 (stereo not drawn)	-9.35
Cc1cc(-c2ccc(C(C)C)c(S(=O)(=O)Nc3ccccn3)c2)on1	10.6
CCOC(=O)N1CCC(N2C(=O)c3ccc(C(=O)NCCC(C)C)cc3C2=O)CC1	-7.32
S=C(NCCNC(=S)Nc1ccccc1Cl)Nc1ccccc1Cl	6.08
Cc1ccc(OCCCn2c(=O)sc3ccccc32)cc1	9.85
CN1CC(C(=O)c2ccccc2)C(c2ccccc2)C1 (stereo not drawn)	-5.47
CC1CN(CC(=O)NCc2ccc(F)cc2)CC(C)O1 (stereo not drawn)	7.79
Cc1cc(NCCOCCO)n2ncc(-c3ccc(Cl)cc3)c2n1	-7.88
CCOc1ccc(-c2[nH]nc3c2C(c2ccc4c(c2)OCO4)C(C#N)=C(N)O3)cc1OC (stereo not drawn)	-14.7
O=c1n(-c2ccccc2)c(=O)n2n1CCC2	4.46
CCCCCCC(=O)Nc1ccc(S(=O)(=O)Nc2onc(C)c2C)cc1	13.6
CC1CCCCC1NC(=O)COC(=O)Cc1ccc(Br)cc1 (stereo not drawn)	26.3

SMILES	hERG current change (%, negative = inhibition) at 10uM [%]
CCOc1ccc(CNS(=O)(=O)c2cc(CN3C(=O)c4cccnc4C3=O)ccc2OC)cc1	-0.0578
Cc1nn(Cc2ccc([N+](=O)[O-])cc2)c(=O)n1-c1ccccc1	-15.1
CCOC(=O)c1c(N)sc(C(=O)Nc2ccc3c(c2)OCO3)c1C	-15.6
CNC(=O)NC(=O)CSc1nc2ccccc2n1CCOC	-0.841
O=C(NC1CCCC1)C(c1ccncc1)N(C(=O)c1csnn1)c1cccc(F)c1 (stereo not drawn)	17.2
Cc1cc(C)nc(Nc2ncc(O)n2-c2ccc(C)c(Cl)c2)n1	-2.3
c1ccc(CN2CCN(c3nc4ccccc4s3)CC2)cc1	11.8
COc1cc(CNCc2ccccc2C(F)(F)F)cc(OC)c1.O=C(O)C(=O)O	22.7
CCCCOc1ccccc1C1NC(=O)CCC1[N+](=O)[O-] (stereo not drawn)	3.86
CCC1Sc2ccc(S(=O)(=O)CCC(=O)N3CCc4ccccc43)cc2NC1=O (stereo not drawn)	6.88
COc1ccc(N2CCN(C(=O)[C@@H](NC(=O)c3ccccc3Cl)C(C)C)CC2)cc1	11
Cc1ccc(C(=O)CSc2nnc(-c3ccco3)n2C)cc1	-27.2
COc1ccc(CCC(C)N(C)Cc2ccccc2)cc1 (stereo not drawn)	-34.8
CN1/C(=C\C(=O)C[n+]2cccc(Br)c2)C(C)(C)c2ccccc21.[Cl-]	0.184
CCSCCc1nnc(NC(=O)Nc2cccc(C(F)(F)F)c2)s1	15.2
Cc1noc(C)c1/C=N/Nc1ccccn1	13.2
CCCC(=O)Nc1ccc(S(=O)(=O)N2CCC(c3nc4ccccc4[nH]3)CC2)cc1	-47.9
S=C(NCCCCNC(=S)NCc1ccccc1)NCc1ccccc1	-9.12
CC(=O)Nc1ccc(S(=O)(=O)N(C)CC(=O)OCC(=O)N2CCCCCC2)cc1	15.1

SMILES	hERG current change (%, negative = inhibition) at 10uM [%]
Cc1ccc(S(=O)(=O)c2c(N)n(/N=C/c3ccco3)c3nc4ccccc4nc23)cc1	-2.58
O=Cc1c(Nc2ccccc2Cl)nc2ccccn2c1=O	9.83
C/C(CC(=O)Nc1ccc(F)cc1)=N\NC(=O)c1ccccn1	-9.09
COC(=O)C(C(=O)Nc1ccccc1C)C1CCCCCC1 (stereo not drawn)	-5.58
C=CCNC(=S)N/N=C/c1ccc(OCc2ccccc2Cl)cc1	-6.71
CC1CCCCC12NC(=O)N(CC(=O)NCCc1ccc(S(N)(=O)=O)cc1)C2=O (stereo not drawn)	-10.4
CCCCCNC(=O)c1cc(S(=O)(=O)N2CCCC2)ccc1F	-22.8
Cc1ccc(-n2c(-c3cnccn3)n[nH]c2=S)c(Br)c1	6.06
Cn1nnnc1SC1CC(=O)N(c2ccccc2)C1=O (stereo not drawn)	2.48
CCOC(=O)c1cc(C(=O)OCC)c(=O)[nH]c1C	-5.37
Cc1ccc(N2CC(C(=O)Nc3ccc(S(=O)(=O)Nc4nccs4)cc3)CC2=O)cc1 (stereo not drawn)	36.2
CC(C)Oc1ccc(CC2CC(=O)NC2=O)cc1 (stereo not drawn)	9.46
CC[N+](C)(CC)CCCOC(=O)C(O)(c1ccccc1)C1CCCCC1.[I-] (stereo not drawn)	13.4
COC(=O)c1ccccc1NC(=O)CN1C(=O)NC2(CCCCCCC2)C1=O	3.83
CC[n+]1c(C)n(-c2ccccc2)c2ccc(C(=O)OC)cc21.[I-]	15.9
CN(C)C(=O)c1cn(N(C)c2ncc(C(F)(F)F)cc2Cl)c(=O)c2ccccc12	-3.76
Cc1ccc(C(=O)Nc2nc(N)n(-c3ccccc3)n2)cc1	-0.817
CCOc1cccc(C(=O)Nc2ccc3c(c2)OCCO3)c1	3.35
Cc1ccccc1-n1nc(-c2cccnc2)cc1C(=O)NN	5.78
